# Among all 310,000 compounds or so, about 2,200 (0.71%) showed an effect of 50% or more. Effects have a minus sign here. Some of the results follow.
# Target: human ether-à-go-go-related gene (hERG) potassium channel (human, UniProt Q12809)
# Assay: primary screen, population patch clamp on CHO cells stably expressing hERG
# Chain of human ether-à-go-go-related gene (hERG) potassium channel (Q12809 whole entry, looked up): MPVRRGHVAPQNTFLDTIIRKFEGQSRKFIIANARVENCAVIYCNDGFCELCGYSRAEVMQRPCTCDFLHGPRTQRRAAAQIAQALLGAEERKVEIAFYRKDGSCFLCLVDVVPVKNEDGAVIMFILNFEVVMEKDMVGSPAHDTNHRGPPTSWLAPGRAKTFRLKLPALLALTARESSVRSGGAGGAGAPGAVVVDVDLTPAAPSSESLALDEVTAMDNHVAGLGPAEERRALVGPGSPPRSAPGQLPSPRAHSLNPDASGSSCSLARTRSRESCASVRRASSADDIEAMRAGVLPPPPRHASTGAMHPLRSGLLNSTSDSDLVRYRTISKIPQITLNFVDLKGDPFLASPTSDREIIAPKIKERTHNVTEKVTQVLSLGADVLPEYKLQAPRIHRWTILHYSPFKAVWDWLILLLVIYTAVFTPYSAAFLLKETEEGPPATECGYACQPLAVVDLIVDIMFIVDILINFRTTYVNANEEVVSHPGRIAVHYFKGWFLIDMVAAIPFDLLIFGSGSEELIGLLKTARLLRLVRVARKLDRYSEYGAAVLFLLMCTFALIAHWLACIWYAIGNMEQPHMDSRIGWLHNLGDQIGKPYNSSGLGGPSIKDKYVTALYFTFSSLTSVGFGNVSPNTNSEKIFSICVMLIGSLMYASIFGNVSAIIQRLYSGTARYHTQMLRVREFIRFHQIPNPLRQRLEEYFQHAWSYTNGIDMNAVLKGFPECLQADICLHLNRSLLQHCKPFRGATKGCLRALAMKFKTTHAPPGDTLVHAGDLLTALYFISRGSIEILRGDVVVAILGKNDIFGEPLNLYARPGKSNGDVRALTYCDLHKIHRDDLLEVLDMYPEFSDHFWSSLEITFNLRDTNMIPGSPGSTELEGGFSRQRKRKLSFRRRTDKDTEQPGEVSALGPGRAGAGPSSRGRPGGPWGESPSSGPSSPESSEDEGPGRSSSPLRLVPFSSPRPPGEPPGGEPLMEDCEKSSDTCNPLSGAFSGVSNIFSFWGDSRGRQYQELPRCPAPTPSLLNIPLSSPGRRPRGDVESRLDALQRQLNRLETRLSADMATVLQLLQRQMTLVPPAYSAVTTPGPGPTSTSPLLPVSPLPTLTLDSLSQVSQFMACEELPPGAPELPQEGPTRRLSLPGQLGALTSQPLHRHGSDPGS
row,SMILES,"hERG current change (%, negative = inhibition) at 1uM"
1,Cc1cc(OCC(=O)OCC(=O)N(C)Cc2ccccc2C)ccc1Cl,11.1%
2,COc1ccc(S(=O)(=O)NC2(C(F)(F)F)NC(=O)N(CCc3ccccc3)C2=O)cc1 (centres unmarked),10.1%
3,COc1ccccc1C(=O)NCC1CCN(c2ccc(S(=O)(=O)N3CCOCC3)cc2)CC1,-0.111%
4,NC1=NC(c2cn[nH]c2-c2cccc(F)c2)n2c(nc3ccccc32)N1 (centres unmarked),10.3%
5,NC(=O)CSc1nc(C23CC4CC(CC(C4)C2)C3)nc2ccccc12,1.28%
6,CCOc1ccccc1NC(=S)NC(=O)CCCOc1ccc(Cl)cc1Cl,9.57%
7,COc1ccc(-c2cn(-c3ccc(C)cc3)c(=O)n2CC(=O)Nc2ccc(OC)cc2OC)cc1,8.62%
8,CNC(=O)CN1C(=O)c2ccccc2S1(=O)=O,13.3%
9,O=C1CCc2cc(S(=O)(=O)N3CCN(C(=O)c4ccco4)CC3)ccc2N1,-10.7%
10,Cc1c(-c2ccccc2)nc(N)c(C#N)c1-c1cccs1,3.37%
11,CC(=O)C(Sc1ccc2nnc(-c3cccnc3)n2n1)C(C)=O,4.31%
12,COc1ccc(N2C(=O)[C@@H]3[C@H](C2=O)[C@H]2c4ccccc4C=CN2[C@@H]3C(=O)Nc2ccccc2)cc1,-7.76%
13,CC1(C)CC(=O)C2=C(C1)Nc1ccccc1NC2c1ccc(F)cc1 (centres unmarked),11.4%
14,CCOC(=O)CSc1nnc(CNC(=O)c2cccs2)n1CCc1ccccc1,-6.88%
15,CCCN(C(=O)COC(=O)CCOc1ccccc1C)c1c(N)n(Cc2ccccc2)c(=O)[nH]c1=O,9.64%
16,CCC(=O)/C=C1\Sc2ccccc2N1CC,4.38%
17,CCCNS(=O)(=O)c1ccc(CCC(=O)N2CCN(c3ccc(OC)cc3)CC2)cc1,-6.53%
18,COCCn1c(SCc2nnc(-c3ccc(OC)c(OC)c3)o2)nnc1-c1ccncc1,6.49%
19,Cc1ccccc1N/C(=C(/C(Cl)=C(Cl)Cl)[N+](=O)[O-])n1nnc2ccccc21,-0.222%
20,CN(CC#CC(O)(c1ccccc1)c1ccccc1)C(C)(C)C,-40.8%
21,COCc1cc(C)nc2sc(C(=O)N3CCCC3)c(N)c12,9.46%
22,OCCN1CCN(CC#CCC(c2ccccc2)c2ccccc2)CC1,8.38%

row,SMILES,"hERG current change (%, negative = inhibition) at 1uM"
1,CCS(=O)(=O)N1CCN=C1SCc1ccccc1,14%
2,CCN1CCN(c2ccc(S(=O)(=O)N3CCOCC3)cc2NC(=O)COc2ccc(F)cc2Cl)CC1,-4.26%
3,COCCN(C(=S)Nc1c(C)cccc1C)C(C)c1cccnc1 (centres unmarked),13%
4,CCOC(=O)Cn1nc(NC(=O)c2cc(OC)cc(OC)c2)cc1C,7.76%
5,COc1ccc(-n2nc3ccc(NS(C)(=O)=O)cc3n2)cc1Cl,2.73%
6,COCCNC(=O)Cn1cnc([N+](=O)[O-])n1,9.22%
7,CC(Cc1ccccn1)NC(=O)c1ccc(OC2CCN(Cc3ccccn3)CC2)cc1 (centres unmarked),14.8%
8,O=[N+]([O-])/C(=C\Nc1ccccc1Cl)S(=O)(=O)c1ccccc1,6.99%
9,Cc1ccc(C(=O)Nc2c(C(=O)NCc3ccco3)cnn2-c2ccccc2)cc1,-1.88%
10,CCNC(=O)c1sc(-c2ccccc2)nc1C,-8.16%
11,Clc1ccc(OCCN2CCOCC2)cc1,12.9%
12,Cc1ccc(N(C(=O)c2ccco2)C(C(=O)NC2CCCC2)c2cccnc2)cc1C (centres unmarked),9.71%
13,COCCNC(=O)C(c1ccc(C)cc1)N(CCOC)C(=O)CCC(=O)Nc1nccs1 (centres unmarked),17.7%
14,CC(C)(C)NCCCCOc1ccc(F)cc1,8.56%
15,CCn1cc(C2N3CC4(C)CN2CC(C)(C3)C4=O)c2ccccc21 (centres unmarked),4.63%
16,Cc1noc(C)c1S(=O)(=O)N1CCC(C(=O)N2CCC(N3CCCCC3)CC2)CC1,16.3%
17,CCOC(=O)c1[nH]c(C)c(C(=O)OCC(=O)NC(C)c2ccc(F)cc2)c1C (centres unmarked),2.48%
18,CC(C)(CSc1nncn1N)NS(=O)(=O)c1ccc(Cl)cc1,13.5%
19,Cc1cc(C(=O)NNC(=O)c2ccc(S(=O)(=O)N(C)C)cc2)c(C)o1,23.4%
20,O=C(CN1C(=O)NC2(CCc3ccccc32)C1=O)NCCc1ccccc1 (centres unmarked),3.93%
21,CCOc1ccc(S(=O)(=O)N(CC)CC(=O)NCc2ccco2)cc1C,11.5%
22,Cc1ccc(F)c(NC(=O)c2cncn2-c2ccccc2)c1,9.29%

row,SMILES,"hERG current change (%, negative = inhibition) at 1uM"
1,CC1CN(C(=O)c2ccc3c(c2)OCO3)OC(c2ccccc2)O1 (centres unmarked),8.87%
2,CCn1c(C)nc2cc(C(=O)N/N=C/c3cccc(O)c3O)ccc21,11.3%
3,Nc1nc(-c2ccccn2)nc(N)c1Cc1ccc(Cl)cc1Cl,13.6%
4,O=C(Nc1ccc(Cl)c(Cl)c1)Nc1cc(S(=O)(=O)N2CCOCC2)ccc1N1CCCC1,1.63%
5,Clc1cccc(Cl)c1COn1nnc2ccccc21,6.07%
6,CCn1c(=O)c(C(=O)Nc2nc3ccccc3[nH]2)c(O)c2ccccc21,-0.0991%
7,CSc1ccc(CCNC(=O)c2cccc3c2C(=O)N(C2CCCCC2)C3)cc1,4.25%
8,Nc1c(Cl)cc(-c2csc(N3CCCC3c3nc4cc(Cl)c(N5CCCCC5)cc4n3CCCO)n2)cc1Cl (centres unmarked),12.1%
9,NC(=O)c1ccc(NC(=O)CNC(c2ccccc2)c2ccccc2)cc1,7.85%
10,O=C(COC(=O)c1ccco1)Nc1ccc2c(c1)OCCO2,13%
11,CCOCCCN(C)C1CCN(C(=O)c2oc3ccccc3c2NC(=O)Cc2ccc(F)cc2)CC1,-85.2%
12,CC(C)CN(CC(C)C)C(=O)Nc1ccc(F)cc1F,15.6%
13,Cn1c2ccccc2c(=O)c2c(=O)n(Cc3ccco3)c(-c3ccc(C(C)(C)C)cc3)nc21,13.4%
14,COc1ccc(-c2cc(C3CCN(Cc4cccc(C(F)(F)F)c4)CC3)[nH]n2)cc1,-13%
15,Cc1nc(C(F)(F)F)ccc1C(=O)NN1CCOCC1,22.6%
16,COc1ccc(N(C(=O)c2cccnc2)S(=O)(=O)c2ccc(OC)c(OC)c2)cc1,-15.3%
17,COCCCNC(=O)CS(=O)(=O)Cc1nc(-c2ccccc2C)oc1C,13.5%
18,COc1cccc2cc(C(=O)NCc3ccc(Cl)cc3)c(=N)oc12,14.6%
19,Cc1cccc(OCc2nnc(SCC(=O)N3c4ccccc4Sc4ccc(Cl)cc43)o2)c1,2.6%
20,O=C(NCc1ccncc1)c1ccc(S(=O)(=O)Nc2ccccc2)cc1,-7.64%
21,CC(C)(C)NC(=O)C(=O)NCCC1=CCCCC1,9.35%
22,Cc1ccc(C(=O)Nc2ccc3ccccc3c2)cc1,11.2%

row,SMILES,"hERG current change (%, negative = inhibition) at 1uM"
1,Cc1ccc2[nH]c(C(=O)O)c(NC(=O)c3ccccc3[N+](=O)[O-])c2c1,-2.15%
2,COc1cccc(NC(=O)Cc2nc(-c3ccccc3)sc2-c2ccc(C)cc2)c1,9.07%
3,COc1ccc(C(=N/O)/C(=N/O)c2ccc(OC)cc2)cc1,5.44%
4,Cc1ccc(C(=O)c2cc([N+](=O)[O-])ccc2N2CCCCC2)cc1C,14.8%
5,Cn1c(C(C)(O)C(O)c2ccccc2)nc2ccccc21 (centres unmarked),-7.82%
6,Cc1ccc2cccc(Oc3nnnn3-c3ccccc3)c2n1,17.6%
7,CCCNC(=O)Cn1cc(S(=O)(=O)N2CCCC2)c(S(=O)(=O)N2CCCC2)c1,18.9%
8,O=C(CN1C(=O)C2CC=CCC2C1=O)Nc1ccc(F)cc1F (centres unmarked),6.22%
9,COc1ccc(-n2nc(C(=O)NCC(=O)NCCCN3CC(C)CC(C)C3)c3ccccc3c2=O)cc1OC (centres unmarked),-7.45%
10,O=C(C[n+]1cccc2ccccc21)c1ccc(NC(=O)c2ccccc2)cc1.[Br-],-1.79%
11,C[N+](C)(C)C[C@H](O)CC(=O)O.[Cl-],17.5%
12,CCS(=O)(=O)NCc1nnc2n1-c1ccc(Br)cc1C(c1ccccc1Cl)=NC2,-2.67%
13,COc1ccc(CNc2nc(NCc3ccc(OC)cc3)c3[nH]cnc3n2)cc1,15.7%
14,CC1(C)CC(=O)C(C(O)c2ccc([N+](=O)[O-])cc2)C(C)(C)N1 (centres unmarked),13.4%
15,Cc1nnc(SCC(=O)NCc2ccco2)[nH]c1=O,-1.58%
16,CC(=O)Nc1ccc(OC(=O)c2ccccc2N)cc1,-12.7%
17,CC(=O)Oc1ccc(C(=O)Nc2ccccc2C(=O)NCC(C)C)cc1,8.85%
18,Cc1ccc(C(=O)N/C(=C\c2ccc(Cl)cc2)C(=O)NCCCN2CCOCC2)cc1,-78.6%
19,CC(SC1CCCC1)C(=O)NC(C)(C#N)C(C)C (centres unmarked),4.93%
20,COC(=O)C(C)n1cnc2c(nnn2-c2ccc(C)cc2)c1=O (centres unmarked),2.72%

# From paper PMC4336329 (PLoS ONE, 2015)
